# Results are given in words; binding and its absence hold for the method and conditions named. Some binding calls cover weakened binding; strength is not graded here.
# The chains behind the UniProt entries cited, without tags or fusion partners.
# UniProt Q9UNF0: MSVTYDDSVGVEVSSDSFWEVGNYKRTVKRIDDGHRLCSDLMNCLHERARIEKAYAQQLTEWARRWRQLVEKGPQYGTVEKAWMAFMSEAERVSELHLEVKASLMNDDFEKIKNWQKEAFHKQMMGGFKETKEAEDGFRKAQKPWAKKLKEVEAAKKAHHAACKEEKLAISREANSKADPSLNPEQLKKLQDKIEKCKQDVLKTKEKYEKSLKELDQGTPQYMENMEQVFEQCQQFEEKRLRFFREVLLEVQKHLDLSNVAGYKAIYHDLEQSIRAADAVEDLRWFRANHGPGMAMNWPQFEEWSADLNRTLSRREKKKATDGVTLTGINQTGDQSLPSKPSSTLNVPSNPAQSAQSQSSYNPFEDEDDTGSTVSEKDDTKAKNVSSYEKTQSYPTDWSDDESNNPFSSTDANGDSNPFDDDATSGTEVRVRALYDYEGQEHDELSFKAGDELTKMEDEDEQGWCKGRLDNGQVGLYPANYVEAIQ
# UniProt Q9Y243: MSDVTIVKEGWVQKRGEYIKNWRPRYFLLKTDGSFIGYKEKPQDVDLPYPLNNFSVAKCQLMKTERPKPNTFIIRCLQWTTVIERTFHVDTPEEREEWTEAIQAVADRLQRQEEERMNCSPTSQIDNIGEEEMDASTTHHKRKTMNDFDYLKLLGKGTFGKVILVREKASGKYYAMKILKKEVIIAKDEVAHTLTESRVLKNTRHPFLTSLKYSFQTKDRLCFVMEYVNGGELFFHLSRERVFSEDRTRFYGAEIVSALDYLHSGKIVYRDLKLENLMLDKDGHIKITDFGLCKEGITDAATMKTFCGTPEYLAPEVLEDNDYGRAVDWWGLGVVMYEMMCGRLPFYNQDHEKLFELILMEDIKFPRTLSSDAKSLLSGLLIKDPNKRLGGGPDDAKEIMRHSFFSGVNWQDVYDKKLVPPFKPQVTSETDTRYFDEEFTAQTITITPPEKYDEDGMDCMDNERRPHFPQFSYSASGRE
# Tests used:
# Experiment in all cases: peptide or protein array; HuProt Human Proteome Microarray v2.0, full-length human proteins spotted in duplicate; V5-tagged TRPV4 protein in solution at 1 μM, 1 h at 4 °C, 150 mM NaCl, 2.7 mM KCl, 25 mM Trizma base, 0.05% Tween-20, pH 7.4; detected with Alexa Fluor 647 anti-V5; hit: z-score >= 2 (N terminus: both of 2 slides; ARD constructs: at least 2 of 3 slides); both purified
# AGO3 (human) = AGO3 (human) (UniProt Q9H9G7)
# [1] = target: T1, OTUB2 (on the HuProt array) (human) (UniProt Q96DC9)
# T1 sequence: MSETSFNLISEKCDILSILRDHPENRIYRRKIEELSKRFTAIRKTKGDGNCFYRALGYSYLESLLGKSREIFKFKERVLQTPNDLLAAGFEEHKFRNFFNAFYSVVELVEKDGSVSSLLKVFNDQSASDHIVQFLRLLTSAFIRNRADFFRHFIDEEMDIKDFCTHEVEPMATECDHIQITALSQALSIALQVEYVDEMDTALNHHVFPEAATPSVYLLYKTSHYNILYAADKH
# PACSIN2 (human) = PACSIN2 (human) (UniProt Q9UNF0)
# [2] = target: T2, Dystrobrevin alpha (human) (UniProt Q9Y4J8)
# T2 sequence: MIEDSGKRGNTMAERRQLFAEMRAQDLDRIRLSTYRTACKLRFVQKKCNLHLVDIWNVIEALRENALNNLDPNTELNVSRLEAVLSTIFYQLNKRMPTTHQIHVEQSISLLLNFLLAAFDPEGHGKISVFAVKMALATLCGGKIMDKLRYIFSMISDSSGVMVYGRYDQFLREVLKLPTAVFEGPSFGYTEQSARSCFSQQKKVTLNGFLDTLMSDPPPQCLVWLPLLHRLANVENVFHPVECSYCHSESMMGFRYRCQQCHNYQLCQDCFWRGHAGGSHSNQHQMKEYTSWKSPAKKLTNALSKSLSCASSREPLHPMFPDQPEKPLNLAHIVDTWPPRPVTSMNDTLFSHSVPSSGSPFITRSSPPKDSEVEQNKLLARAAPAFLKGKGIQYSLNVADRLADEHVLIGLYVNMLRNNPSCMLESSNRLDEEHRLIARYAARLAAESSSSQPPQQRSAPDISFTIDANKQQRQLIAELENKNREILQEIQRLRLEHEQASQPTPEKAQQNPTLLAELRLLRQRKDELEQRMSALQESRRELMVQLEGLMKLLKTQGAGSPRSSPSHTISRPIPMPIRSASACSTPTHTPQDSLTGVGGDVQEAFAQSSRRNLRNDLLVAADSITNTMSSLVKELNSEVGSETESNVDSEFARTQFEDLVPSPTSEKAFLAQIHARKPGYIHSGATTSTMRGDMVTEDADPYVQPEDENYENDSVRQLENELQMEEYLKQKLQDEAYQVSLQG
# PKD2L2 (human) = target: T3, PKD2L2 (human) (UniProt Q9NZM6)
# T3 sequence: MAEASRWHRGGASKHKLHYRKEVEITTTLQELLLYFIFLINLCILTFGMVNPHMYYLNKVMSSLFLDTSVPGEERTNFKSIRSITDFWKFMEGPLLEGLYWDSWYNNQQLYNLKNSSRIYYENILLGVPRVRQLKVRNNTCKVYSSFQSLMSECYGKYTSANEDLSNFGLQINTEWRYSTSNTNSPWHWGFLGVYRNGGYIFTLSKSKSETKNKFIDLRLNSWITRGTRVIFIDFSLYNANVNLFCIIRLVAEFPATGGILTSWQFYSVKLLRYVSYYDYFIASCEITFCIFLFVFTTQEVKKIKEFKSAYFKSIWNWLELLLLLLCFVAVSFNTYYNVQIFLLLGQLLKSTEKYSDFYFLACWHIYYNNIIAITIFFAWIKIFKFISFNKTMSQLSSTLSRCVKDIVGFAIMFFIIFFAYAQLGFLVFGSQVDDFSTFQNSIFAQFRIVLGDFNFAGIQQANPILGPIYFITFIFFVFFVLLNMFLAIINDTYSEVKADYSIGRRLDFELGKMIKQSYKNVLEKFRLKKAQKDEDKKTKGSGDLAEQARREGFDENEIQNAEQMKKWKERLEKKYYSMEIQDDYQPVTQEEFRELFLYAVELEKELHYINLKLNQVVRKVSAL
# AKT3 (human) = AKT3 (human) (UniProt Q9Y243)
substance,measurement,setting,value
TRPV4^WT-ARD (amino acids 149-397) (from UniProt Q9HBA0 149-397) (domain or fragment),binding,AGO3 (human),no binding (tested: 1 μM)
same,binding,[1],no binding (tested: 1 μM)
same,binding,PACSIN2 (human),no binding (tested: 1 μM)
same,binding,[2],binds
same,binding,PKD2L2 (human),no binding (tested: 1 μM)
same,binding,AKT3 (human),no binding (tested: 1 μM)
